In article PMC4917241:
These are yes or no findings as the source states them, for the method shown. In cells and extracts the contact can be indirect. Some binding calls cover weakened binding; strength is not graded here. For some assays here: Where a sequence is shown, tags or fusion partners need not be part of it.

Sequences of proteins named here, by UniProt entry; tags and fusion partners are left off. A change or cut given only in a name is not applied to a line headed by its entry.
UniProt Q96GD4: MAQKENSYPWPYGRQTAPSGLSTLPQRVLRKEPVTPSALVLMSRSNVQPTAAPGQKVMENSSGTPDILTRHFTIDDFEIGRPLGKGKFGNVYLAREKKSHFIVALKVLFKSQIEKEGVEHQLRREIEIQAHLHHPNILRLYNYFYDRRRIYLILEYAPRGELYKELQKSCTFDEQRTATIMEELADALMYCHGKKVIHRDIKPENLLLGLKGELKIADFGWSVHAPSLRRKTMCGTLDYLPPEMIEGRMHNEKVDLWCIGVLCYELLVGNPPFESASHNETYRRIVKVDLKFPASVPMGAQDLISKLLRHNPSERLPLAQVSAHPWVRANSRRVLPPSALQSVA
UniProt O15392: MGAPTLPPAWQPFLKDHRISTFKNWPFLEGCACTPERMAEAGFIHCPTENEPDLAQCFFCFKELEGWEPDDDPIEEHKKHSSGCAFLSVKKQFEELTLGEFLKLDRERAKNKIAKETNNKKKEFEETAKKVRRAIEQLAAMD
UniProt Q9NQS7: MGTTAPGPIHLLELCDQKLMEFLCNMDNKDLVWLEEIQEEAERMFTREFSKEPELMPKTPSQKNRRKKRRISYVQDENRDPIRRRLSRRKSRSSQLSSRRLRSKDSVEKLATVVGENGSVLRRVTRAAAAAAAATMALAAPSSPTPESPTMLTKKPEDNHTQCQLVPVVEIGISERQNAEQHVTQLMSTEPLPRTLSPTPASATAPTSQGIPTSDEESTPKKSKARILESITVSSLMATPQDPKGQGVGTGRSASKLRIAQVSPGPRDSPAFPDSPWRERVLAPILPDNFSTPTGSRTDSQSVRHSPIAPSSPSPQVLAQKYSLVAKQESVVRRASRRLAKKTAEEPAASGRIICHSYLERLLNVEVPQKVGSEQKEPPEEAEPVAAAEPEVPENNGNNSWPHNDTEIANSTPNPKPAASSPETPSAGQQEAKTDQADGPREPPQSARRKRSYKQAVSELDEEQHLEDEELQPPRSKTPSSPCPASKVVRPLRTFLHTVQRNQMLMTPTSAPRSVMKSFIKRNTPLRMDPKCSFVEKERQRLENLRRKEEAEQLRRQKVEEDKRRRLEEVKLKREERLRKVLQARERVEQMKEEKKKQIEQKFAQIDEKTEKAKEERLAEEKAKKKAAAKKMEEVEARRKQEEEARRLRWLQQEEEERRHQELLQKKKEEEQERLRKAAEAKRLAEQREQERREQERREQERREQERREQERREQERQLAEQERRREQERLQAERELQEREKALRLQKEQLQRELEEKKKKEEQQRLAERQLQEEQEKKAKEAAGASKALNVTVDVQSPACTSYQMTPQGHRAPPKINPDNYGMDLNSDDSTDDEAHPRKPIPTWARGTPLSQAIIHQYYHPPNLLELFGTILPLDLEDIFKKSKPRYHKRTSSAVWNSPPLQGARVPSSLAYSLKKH

What was measured:
[1] = molecular target: T1, GST-Aurora-C N-terminus (amino acids 1–40) (human) (UniProt Q9UQB9); assay: pull-down; 35S-methionine labeled in vitro translated protein incubated with GST fusion protein on beads in NET-N buffer (50 mM Tris pH 8.0, 150 mM NaCl, 0.5% NP-40) 1.5 h at 4°C; SDS-PAGE, autoradiography; only the target purified
T1 sequence: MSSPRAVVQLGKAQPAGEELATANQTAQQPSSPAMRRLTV

[2] = molecular target: T2, GST-Aurora-C full-length (human) (UniProt Q9UQB9); assay: as above
T2 sequence: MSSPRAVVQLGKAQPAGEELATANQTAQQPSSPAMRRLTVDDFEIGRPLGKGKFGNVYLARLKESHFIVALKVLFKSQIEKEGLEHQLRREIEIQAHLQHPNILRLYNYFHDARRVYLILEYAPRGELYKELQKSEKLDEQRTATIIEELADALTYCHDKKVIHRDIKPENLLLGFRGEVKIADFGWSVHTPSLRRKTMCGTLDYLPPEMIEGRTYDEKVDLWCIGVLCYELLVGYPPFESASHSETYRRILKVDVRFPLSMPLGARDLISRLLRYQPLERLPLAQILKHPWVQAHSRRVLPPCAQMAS

[3] = molecular target: T3, GST-Aurora-C C-terminus (amino acids 41–309) (human) (UniProt Q9UQB9); assay: as above
T3 sequence: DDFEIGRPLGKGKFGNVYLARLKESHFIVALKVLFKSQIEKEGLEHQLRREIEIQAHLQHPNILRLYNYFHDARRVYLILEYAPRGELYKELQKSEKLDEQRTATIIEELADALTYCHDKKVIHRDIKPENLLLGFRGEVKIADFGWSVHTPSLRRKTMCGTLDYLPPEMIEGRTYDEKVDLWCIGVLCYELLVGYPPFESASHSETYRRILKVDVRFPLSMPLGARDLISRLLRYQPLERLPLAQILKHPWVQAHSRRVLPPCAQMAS

Flag-Aurora-C (human) = molecular target: T4, Flag-Aurora-C (human) (UniProt Q9UQB9); assay: co-IP; 293T cells co-transfected with HA-INCENP and Flag tagged Aurora kinase (with or without the other GFP tagged kinase and His-Survivin); anti-Flag antibody; immunoblot or kinase assay of the immune complex
T4 sequence: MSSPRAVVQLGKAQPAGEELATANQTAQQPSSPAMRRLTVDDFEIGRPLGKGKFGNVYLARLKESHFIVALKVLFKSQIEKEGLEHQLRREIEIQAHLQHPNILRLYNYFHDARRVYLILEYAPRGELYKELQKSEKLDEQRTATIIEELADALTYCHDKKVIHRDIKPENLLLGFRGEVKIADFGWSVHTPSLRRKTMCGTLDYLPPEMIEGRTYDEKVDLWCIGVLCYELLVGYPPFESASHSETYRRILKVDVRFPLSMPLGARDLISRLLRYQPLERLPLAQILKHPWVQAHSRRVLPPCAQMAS

Flag-Aurora-B (human) = Flag-Aurora-B (human) (UniProt Q96GD4); assay: as above
[4] = molecular target: T5, Aurora-C (endogenous) (human (endogenous in PC-3, SK-OV-3, MCF-10A)) (UniProt Q9UQB9); assay: co-IP; endogenous proteins; nocodazole-treated (500 ng/ml) PC-3 lysate in L buffer with 250 mM NaCl; anti-Aurora-C, anti-Survivin or anti-Aurora-B antibody, normal IgG as control; immunoblot
T5 sequence: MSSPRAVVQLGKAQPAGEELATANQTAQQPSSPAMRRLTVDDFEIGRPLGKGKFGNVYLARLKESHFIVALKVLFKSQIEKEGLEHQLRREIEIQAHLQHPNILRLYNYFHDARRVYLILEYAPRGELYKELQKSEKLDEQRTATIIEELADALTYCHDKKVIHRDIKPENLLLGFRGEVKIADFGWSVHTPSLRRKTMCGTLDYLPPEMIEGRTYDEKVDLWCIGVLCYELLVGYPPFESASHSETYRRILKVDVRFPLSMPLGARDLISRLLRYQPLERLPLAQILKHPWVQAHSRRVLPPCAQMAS

[5] = molecular target: Aurora-B (endogenous) (human (endogenous in PC-3, SK-OV-3, MCF-10A)) (UniProt Q96GD4); assay: as above
[6] = molecular target: T6, GFP-Aurora-C (Tet-on HeLa cells) (human) (UniProt Q9UQB9); assay: co-IP; GFP-Aurora-C from Tet-on HeLa cells immunoprecipitated with anti-GFP antibody; endogenous partners; data not shown
T6 sequence: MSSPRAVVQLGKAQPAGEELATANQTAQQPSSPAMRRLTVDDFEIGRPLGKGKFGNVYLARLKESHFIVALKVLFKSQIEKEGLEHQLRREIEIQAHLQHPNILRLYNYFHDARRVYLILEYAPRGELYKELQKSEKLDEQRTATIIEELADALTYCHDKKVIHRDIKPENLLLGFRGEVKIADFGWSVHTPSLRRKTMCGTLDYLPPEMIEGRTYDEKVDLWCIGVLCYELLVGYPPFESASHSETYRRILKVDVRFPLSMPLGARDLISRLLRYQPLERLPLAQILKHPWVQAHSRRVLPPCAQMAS

[7] = molecular target: T5, Aurora-C (endogenous) (human (endogenous in PC-3, SK-OV-3, MCF-10A)); assay: co-IP; endogenous proteins of SK-OV-3 and MCF-10A cells; data not shown
[8] = molecular target: Aurora-B (endogenous) (human (endogenous in PC-3, SK-OV-3, MCF-10A)) (UniProt Q96GD4); assay: as above
[9] = molecular target: T2, GST-Aurora-C full-length (human); assay: pull-down; Sf-9 cells co-infected with baculoviruses for GST-Aurora-C or GST-Aurora-B and His-INCENP; isolated on glutathione sepharose; anti-INCENP immunoblot
GST-Aurora-B WT (human) = GST-Aurora-B WT (human) (UniProt Q96GD4); assay: as above
GST-Survivin (human) = GST-Survivin (human) (UniProt O15392); assay: pull-down; 35S-methionine labeled in vitro translated protein incubated with GST fusion protein on beads in NET-N buffer (50 mM Tris pH 8.0, 150 mM NaCl, 0.5% NP-40) 1.5 h at 4°C; SDS-PAGE, autoradiography; only the target purified
[10] = molecular target: Survivin (endogenous) (human (endogenous in PC-3, SK-OV-3, MCF-10A, HeLa)) (UniProt O15392); assay: co-IP; endogenous proteins of SK-OV-3 and MCF-10A cells; data not shown
[11] = molecular target: Survivin (endogenous) (human (endogenous in PC-3, SK-OV-3, MCF-10A, HeLa)) (UniProt O15392); assay: co-IP; endogenous proteins; nocodazole-treated (500 ng/ml) PC-3 lysate in L buffer with 250 mM NaCl; anti-Aurora-C, anti-Survivin or anti-Aurora-B antibody, normal IgG as control; immunoblot

“35S-labeled Survivin (in vitro translated) (from UniProt O15392 1-142)” was tested, and the binding [1] was “no binding”, the binding [2] was “binds” and the binding [3] was “binds”.

With “His-Survivin (from UniProt O15392 1-142)” the binding (Flag-Aurora-C (human)) was “binds”.

In the case of HA-INCENP (from UniProt Q9NQS7 1-918), the binding (Flag-Aurora-C (human)) is reported as “binds” and the binding (Flag-Aurora-B (human)) is reported as “binds”.

In the case of “Survivin (endogenous) (from UniProt O15392 1-142)”, the binding [4] is reported as “binds”, the binding [5] is reported as “binds” and the binding [6] is reported as “binds”. For the same molecule, the binding [7] was “binds” and the binding [8] was “binds”.

“Inner Centromere Protein (INCENP) (endogenous) (from UniProt Q9NQS7 1-918)” was tested, and the binding [4] was “binds”, the binding [5] was “binds” and the binding [6] was “binds”. The binding [7] was “binds” and the binding [8] was “binds”.

For “His-Survivin S20A (from UniProt O15392 1-142)”, the binding (Flag-Aurora-C (human)) was “binds”.

In the case of “His-INCENP full-length WT (from UniProt Q9NQS7 1-918)”, the binding [9] is reported as “binds” and the binding (GST-Aurora-B WT (human)) is reported as “binds”.

B1: 35S-labeled Aurora-C deletion mutant aa 41–160 (in vitro translated) (domain or fragment, UniProt Q9UQB9 41-160)
chain: DDFEIGRPLGKGKFGNVYLARLKESHFIVALKVLFKSQIEKEGLEHQLRREIEIQAHLQHPNILRLYNYFHDARRVYLILEYAPRGELYKELQKSEKLDEQRTATIIEELADALTYCHDK
modifications: 35S-methionine label
For B1, the binding (GST-Survivin (human)) was “no binding”.

B2: 35S-labeled Aurora-C deletion mutant aa 41–291 (in vitro translated) (domain or fragment, UniProt Q9UQB9 41-291)
chain: DDFEIGRPLGKGKFGNVYLARLKESHFIVALKVLFKSQIEKEGLEHQLRREIEIQAHLQHPNILRLYNYFHDARRVYLILEYAPRGELYKELQKSEKLDEQRTATIIEELADALTYCHDKKVIHRDIKPENLLLGFRGEVKIADFGWSVHTPSLRRKTMCGTLDYLPPEMIEGRTYDEKVDLWCIGVLCYELLVGYPPFESASHSETYRRILKVDVRFPLSMPLGARDLISRLLRYQPLERLPLAQILKHP
modifications: 35S-methionine label
In the case of B2, the binding (GST-Survivin (human)) is reported as “no binding”.

B3: 35S-labeled Aurora-C deletion mutant aa 41–280 (in vitro translated) (domain or fragment, UniProt Q9UQB9 41-280)
chain: DDFEIGRPLGKGKFGNVYLARLKESHFIVALKVLFKSQIEKEGLEHQLRREIEIQAHLQHPNILRLYNYFHDARRVYLILEYAPRGELYKELQKSEKLDEQRTATIIEELADALTYCHDKKVIHRDIKPENLLLGFRGEVKIADFGWSVHTPSLRRKTMCGTLDYLPPEMIEGRTYDEKVDLWCIGVLCYELLVGYPPFESASHSETYRRILKVDVRFPLSMPLGARDLISRLLRYQPLE
modifications: 35S-methionine label
B3 was tested, and the binding (GST-Survivin (human)) was “no binding”.

B4: 35S-labeled Aurora-C deletion mutant aa 41–220 (in vitro translated) (domain or fragment, UniProt Q9UQB9 41-220)
chain: DDFEIGRPLGKGKFGNVYLARLKESHFIVALKVLFKSQIEKEGLEHQLRREIEIQAHLQHPNILRLYNYFHDARRVYLILEYAPRGELYKELQKSEKLDEQRTATIIEELADALTYCHDKKVIHRDIKPENLLLGFRGEVKIADFGWSVHTPSLRRKTMCGTLDYLPPEMIEGRTYDEKV
modifications: 35S-methionine label
B4 was tested, and the binding (GST-Survivin (human)) was “no binding”.

B5: 35S-labeled Aurora-C deletion mutant aa 41–130 (in vitro translated) (domain or fragment, UniProt Q9UQB9 41-130)
chain: DDFEIGRPLGKGKFGNVYLARLKESHFIVALKVLFKSQIEKEGLEHQLRREIEIQAHLQHPNILRLYNYFHDARRVYLILEYAPRGELYK
modifications: 35S-methionine label
In the case of B5, the binding (GST-Survivin (human)) is reported as “no binding”.

B6: 35S-labeled Aurora-C deletion mutant aa 41–250 (in vitro translated) (domain or fragment, UniProt Q9UQB9 41-250)
chain: DDFEIGRPLGKGKFGNVYLARLKESHFIVALKVLFKSQIEKEGLEHQLRREIEIQAHLQHPNILRLYNYFHDARRVYLILEYAPRGELYKELQKSEKLDEQRTATIIEELADALTYCHDKKVIHRDIKPENLLLGFRGEVKIADFGWSVHTPSLRRKTMCGTLDYLPPEMIEGRTYDEKVDLWCIGVLCYELLVGYPPFESASHSETYRR
modifications: 35S-methionine label
For B6, the binding (GST-Survivin (human)) was “no binding”.

B7: 35S-labeled Aurora-C deletion mutant aa 41–190 (in vitro translated) (domain or fragment, UniProt Q9UQB9 41-190)
chain: DDFEIGRPLGKGKFGNVYLARLKESHFIVALKVLFKSQIEKEGLEHQLRREIEIQAHLQHPNILRLYNYFHDARRVYLILEYAPRGELYKELQKSEKLDEQRTATIIEELADALTYCHDKKVIHRDIKPENLLLGFRGEVKIADFGWSVH
modifications: 35S-methionine label
In the case of B7, the binding (GST-Survivin (human)) is reported as “no binding”.

B8: 35S-labeled Aurora-C full length (in vitro translated) (enzyme, UniProt Q9UQB9 1-309)
chain: MSSPRAVVQLGKAQPAGEELATANQTAQQPSSPAMRRLTVDDFEIGRPLGKGKFGNVYLARLKESHFIVALKVLFKSQIEKEGLEHQLRREIEIQAHLQHPNILRLYNYFHDARRVYLILEYAPRGELYKELQKSEKLDEQRTATIIEELADALTYCHDKKVIHRDIKPENLLLGFRGEVKIADFGWSVHTPSLRRKTMCGTLDYLPPEMIEGRTYDEKVDLWCIGVLCYELLVGYPPFESASHSETYRRILKVDVRFPLSMPLGARDLISRLLRYQPLERLPLAQILKHPWVQAHSRRVLPPCAQMAS
modifications: 35S-methionine label
B8 was tested, and the binding (GST-Survivin (human)) was “binds”.

B9: Aurora-C (endogenous) (enzyme, UniProt Q9UQB9 1-309)
chain: MSSPRAVVQLGKAQPAGEELATANQTAQQPSSPAMRRLTVDDFEIGRPLGKGKFGNVYLARLKESHFIVALKVLFKSQIEKEGLEHQLRREIEIQAHLQHPNILRLYNYFHDARRVYLILEYAPRGELYKELQKSEKLDEQRTATIIEELADALTYCHDKKVIHRDIKPENLLLGFRGEVKIADFGWSVHTPSLRRKTMCGTLDYLPPEMIEGRTYDEKVDLWCIGVLCYELLVGYPPFESASHSETYRRILKVDVRFPLSMPLGARDLISRLLRYQPLERLPLAQILKHPWVQAHSRRVLPPCAQMAS
B9 was tested, and the binding [10] was “binds” and the binding [11] was “binds”.
